The text below walks through data of PubChem BioAssay AID488969 (Vanderbilt High Throughput Screening Facility, 2010).

Whole data set: some 110,000 compounds, median “z-score” near -0.1, cut for the highest 2% near 2. The list shows a part of the results.

The assay addresses Metabotropic glutamate receptor 8 (Rattus norvegicus) (UniProt P70579). The assay can be described thus: mGluR8 Gi/Go-coupled signaling modulation – cell-based, rat, thallium flux, HTS, primary screen (AID 488969). As to conditions: HEK293 rat mGluR8, GIRK (G protein-gated inwardly rectifying potassium channel) thallium flux, FluoZin2; at 10 µM; stronger effect = higher value; submaximal glutamate (EC20) added with thallium.
Chain of UniProt P70579 (P70579 whole entry, looked up): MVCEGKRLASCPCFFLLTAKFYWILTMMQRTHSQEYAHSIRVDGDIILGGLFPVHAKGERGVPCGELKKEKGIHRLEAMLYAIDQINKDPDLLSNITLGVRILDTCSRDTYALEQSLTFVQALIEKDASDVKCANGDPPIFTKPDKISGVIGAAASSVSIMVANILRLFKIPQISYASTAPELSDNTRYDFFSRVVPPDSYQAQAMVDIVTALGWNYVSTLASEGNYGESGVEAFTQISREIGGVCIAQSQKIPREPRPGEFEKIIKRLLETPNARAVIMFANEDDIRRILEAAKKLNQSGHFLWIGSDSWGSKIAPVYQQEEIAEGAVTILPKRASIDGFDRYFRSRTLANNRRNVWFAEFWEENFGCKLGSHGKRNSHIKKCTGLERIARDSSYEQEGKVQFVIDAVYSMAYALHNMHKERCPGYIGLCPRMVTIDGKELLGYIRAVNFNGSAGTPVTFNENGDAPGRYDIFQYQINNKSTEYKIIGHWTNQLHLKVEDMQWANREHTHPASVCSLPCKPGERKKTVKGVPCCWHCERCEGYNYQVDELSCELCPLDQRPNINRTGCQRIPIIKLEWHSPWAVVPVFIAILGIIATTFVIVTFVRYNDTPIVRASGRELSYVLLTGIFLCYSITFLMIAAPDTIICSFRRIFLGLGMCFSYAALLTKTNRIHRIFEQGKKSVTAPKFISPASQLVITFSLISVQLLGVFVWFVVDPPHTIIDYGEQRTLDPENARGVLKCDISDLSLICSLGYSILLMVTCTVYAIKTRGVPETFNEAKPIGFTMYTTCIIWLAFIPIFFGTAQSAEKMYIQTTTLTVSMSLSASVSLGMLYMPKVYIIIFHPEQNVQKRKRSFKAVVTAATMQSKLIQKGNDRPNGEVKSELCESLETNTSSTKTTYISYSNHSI
Take `CCCCN1C(=O)N(C)C2NC(=O)NC21` (stereo not drawn): the z-score is -0.136.
The same measure for `O=S(=O)(c1ccc(Br)cc1)n1ccc2ccccc21`: -0.883; for `Nc1nc2ccccc2n1/N=C/c1ccc([N+](=O)[O-])s1`: -0.00295; for `CCCCCCNCc1c(F)cccc1Cl`: -0.733.
`Cc1ccc(S(=O)(=O)N2CCCC2C(=O)Nc2nccs2)cc1` (stereo not drawn): the z-score was -0.579.
Compound `N#C/C(=C\Nc1ccccc1SC(F)(F)F)c1nc(-c2ccc(F)cc2)cs1` showed a z-score of 0.794.
The same measure for `COc1ccc(C/C(N)=N/OC(=O)COc2ccccc2C)cc1`: 0.0355; for `CCOc1ccc(C(CC(=O)O)NS(=O)(=O)c2ccc(C)cc2)cc1OC` (stereo not drawn): 0.0551.
The same measure for `CN1CCN(C(=S)Nc2ccc([N+](=O)[O-])cc2)CC1`: -0.109.
The same measure for `Cc1ccc(NC(=O)CN2CC(C)SC2=NC2CCCCC2)cc1` (stereo not drawn): 0.372; for `ONC(=Nc1ccc(Cl)cc1)c1ccc(Cl)cc1`: -0.122; for `CC(=O)c1c(C(C)=O)c(C)n(-c2ccc(C(=O)O)cc2)c1C`: 0.0344.
Regarding `Nn1c(SCC(=O)N2CCCCC2)nnc1-c1ccncc1`, the z-score is -0.383.
As to `CC(=O)c1c(C)[nH]c(C(=O)OCC(=O)N2CCc3ccccc32)c1C`, the z-score was -0.754.
The same measure for `CN=C1S/C(=C\c2cn(C(C)=O)nc2-c2ccccc2)C(=O)N1C`: -0.262; for `CN1CCN(CC#CC2(O)CCCCC2)CC1`: -0.162; for `CC1(C)CC(=O)N(c2ccccc2)C1(C)O` (stereo not drawn): -0.532.
The same measure for `O=C1CN(S(=O)(=O)c2ccccc2)CCN1S(=O)(=O)c1ccccc1`: -0.202.
In the case of `Cc1ccc2c(c1)C(c1ccccc1)N(C(=O)c1ccc(Br)o1)CC(=O)N2` (stereo not drawn), the z-score is -0.894.
The same measure for `CCN(CC)C(NC(=O)Cc1ccccc1)C(Cl)(Cl)Cl` (stereo not drawn): -0.194; for `C1=CC2CC1CC2CN1CCN(Cc2ccccc2)CC1` (stereo not drawn): -0.14; for `COc1ccc(/C=C(\NC(=O)c2ccc(OC)cc2)C(=O)NC(CCSC)C(=O)O)cc1` (stereo not drawn): -0.0378.
The same measure for `CCOC(=O)N1N=C(CC)CC1(O)C(F)(F)F` (stereo not drawn): 0.565; for `COC(=O)c1c(C)[nH]c(C(=O)/C=C/c2ccc(Cl)cc2)c1C`: -0.0114.
The same measure for `COc1ccc(OC)c(NC(=O)c2cccc(S(=O)(=O)N(Cc3ccccc3)c3ccccc3OC)c2)c1`: -0.203; for `CCOC(=O)C(CSCc1ccccc1)NC(=O)OC(C)(C)C` (stereo not drawn): -1.04.
Take `COc1ccc(NC(=O)c2ccc(=O)oc2)cc1`: the z-score is -0.457.
The same measure for `C=CCN(CC=C)C(=O)Cc1ccc(F)cc1`: -0.392.
Compound `Fc1ccc(NC(=S)NN2CCOCC2)cc1Cl` came in with a z-score of -0.351.
The same measure for `Cc1ccc(S(=O)(=O)O/N=C2\CCCc3ccccc32)cc1`: -0.354; for `O=C(Nc1ccc(N2CCN(C(=O)c3ccccc3)CC2)cc1)c1cc2ccccc2o1`: -0.123; for `Cc1cc2ccccc2n1CCNC(=O)Cc1cccc2ccccc12`: 0.079.
The same measure for `O=c1cc[nH]c2c(C(F)(F)F)cccc12`: -0.157; for `COc1ccc(C(=O)/C=C(/C)N(C)C)cc1`: 0.37.
The same measure for `COc1cccc(C2c3c(oc4ccccc4c3=O)C(=O)N2CCCN(C)C)c1OC` (stereo not drawn): -0.0845; for `N#CC1(Nc2ccccc2)C(=O)Nc2ccccc21` (stereo not drawn): -0.288.
In turn, `CCOC(=O)c1c(C)[nH]c(C)c1C(=O)COC(=O)c1ccc(Cl)c(S(N)(=O)=O)c1` gave a z-score of -0.149.
The same measure for `CCCn1c(O)c(CN2CCCC(C)C2)c(C)c(C#N)c1=O` (stereo not drawn): 0.0972.
The same measure for `CC(C)C(=O)Nc1cccc(C(=O)Nc2nncs2)c1`: 0.121.
The same measure for `Cc1onc(-c2c(Cl)cccc2Cl)c1C(=O)NCCN1CCOCC1`: 0.787; for `Cc1ccc(C)c(N2CCN(C(=S)NC3CCCCC3)CC2)c1`: 0.514.
With `Cc1ccc(S(=O)(=O)CCC(=O)NCCN2C(=O)S/C(=C\c3ccccc3)C2=O)cc1`, the z-score is -0.13.
Turning to `CCN(CC)S(=O)(=O)c1csc(C(=O)NC2CCCCC2)c1`, the z-score was determined as 0.101.
The same measure for `Cc1ccc(-c2csc3nnc(SCC(=O)NCc4ccc5c(c4)OCO5)n23)cc1`: -0.53.
The same measure for `Cc1ccc(C(=O)OCC(=O)NC(=O)c2cccn2C)cc1`: -0.0462; for `Cn1c(-c2ccccc2)c[n+]2c1-c1ccccc1C2`: -0.0447; for `COC(=O)Cc1c(O)ccn(Cc2ccc(F)cc2)c1=O`: 0.00177.
`Cc1nc2ccc(S(=O)(=O)NCC(=O)N3CCC(C)CC3)cc2s1` had a z-score of -0.149.
The same measure for `S=C(NCCC(c1ccccc1)c1ccccc1)Nc1cccc(Cl)c1`: -0.0667.
The same measure for `CC(=O)N1CCc2c(sc3c2c(=O)n(-c2ccccc2)c(=O)n3Cc2ccccc2Cl)C1`: -0.336; for `c1ccc2oc(SCc3cn4ccsc4n3)nc2c1`: 0.0354; for `COCCCNC(=O)c1ccc(Cn2c(=O)c3ccccc3n(Cc3ccc(C)cc3)c2=O)cc1`: 0.211.
As to `CCOc1ccc2nc(SCC#N)c(C#N)cc2c1`, the z-score worked out at 1.
The same measure for `CC(OC(=O)c1cc2sccc2n1C)C(=O)NCCc1ccccc1` (stereo not drawn): -0.478; for `COC(=O)c1ccc(Sc2ccccc2NS(=O)(=O)c2ccc(C)cc2)nc1`: 1.05; for `O=S(=O)(N/N=C\C=C\c1ccccc1)c1ccc(Cl)cc1`: -0.13.
The same measure for `CN(C)S(=O)(=O)c1cccc(C(=O)C2=C3SC=C(c4ccccc4)N3CC2)c1`: -0.584; for `Cc1ccc(-c2cc(C)nc3ncnn23)cc1`: -0.18; for `Cc1cccc(CCN(C(=O)Cc2cccs2)C(C(=O)NC2CCCCC2)c2cccnc2)c1` (stereo not drawn): -0.143.
The same measure for `COc1ccc(NC(=O)CN2CCOCC2)cc1`: 0.139; for `COc1ccc(-n2c(N)c(C(=O)NCc3ccco3)sc2=S)cc1`: 0.16; for `Cc1ccc(NC(=O)CCCN2C(=O)/C(=C/C=C/c3ccccc3)SC2=S)cc1`: -0.221.
The compound `O=C(Sc1nnc(-c2ccccc2)o1)N1c2ccccc2Sc2ccccc21` showed a z-score of 1.17.
The same measure for `O=[N+]([O-])c1ccc(N/N=C/c2cn(-c3ccccc3)nc2-c2ccccc2)cc1`: 0.00805.
The same measure for `OCCN1CCN(CC(O)COc2ccc(-c3ccccc3)cc2)CC1` (stereo not drawn): -0.0757; for `O=C(COC(=O)C1CC(=O)N(c2ccc3c(c2)OCCO3)C1)Nc1ccc2c(c1)CCC2` (stereo not drawn): -0.623.
The compound `O=C(Nc1ccc(Cl)cc1)c1cccnc1N1CCCCC1` had a z-score of -0.771.
`O=C(Nc1ccccc1)Nc1nc(-c2ccc(Cl)cc2)cs1` came in with a z-score of -0.373.
`NC(=O)C1(N2CCCCC2)CCN(Cc2ccc(F)cc2)CC1` had a z-score of 0.0305.
The same measure for `O=C1CSC(c2ccc(Cl)cc2Cl)N1c1ccccn1` (stereo not drawn): 0.145; for `O=C(NCCCN1CCN(c2cccc(Cl)c2)CC1)c1ccc(N2CCCC2=O)cc1`: -0.352; for `C=CCn1sc(N)c(C(=O)OCC)c1=S`: 1.34.
The compound `CCOC(=O)c1ccc(NC(=O)Cc2coc3cc4c(cc23)CCC4)cc1` had a z-score of -0.247.
